Our source for the activity change, negative = inhibition values is PubChem BioAssay AID1745853 (National Center for Advancing Translational Sciences (NCATS), 2022).

Test in all cases: Primary Screen for Target Class Profiling of Small Molecule Inhibitors of Methyltransferases
For experiment [1], the target named is Glycine N-methyltransferase (Homo sapiens) (UniProt Q14749). The following applies: purified enzyme, MTase-Glo SAH luminescence; measured here: GNMT inhibition; at 40 µM; stronger effect = lower value. Put shortly:
(§1)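 Each enzyme was reacted with SAM and its substrate, with compounds tested once at 40 uM; SAH formed was read by MTase-Glo luminescence.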

Experiment [2] has as its target Guanidinoacetate N-methyltransferase (Homo sapiens) (UniProt Q14353). The following applies: purified enzyme, MTase-Glo SAH luminescence; measured here: GAMT inhibition; at 40 µM; stronger effect = lower value. In outline:
as §1

Experiment [3] has as its target Histamine N-methyltransferase (Homo sapiens) (UniProt P50135). Conditions: purified enzyme, MTase-Glo SAH luminescence; measured here: HNMT inhibition; at 40 µM; stronger effect = lower value. In outline: as §1
For experiment [4], the target named is Nicotinamide N-methyltransferase (Homo sapiens) (UniProt P40261). Conditions: purified enzyme, MTase-Glo SAH luminescence; measured here: NNMT inhibition; at 40 µM; stronger effect = lower value. Put shortly:
as §1

The target of experiment [5] is Phenylethanolamine N-methyltransferase (Homo sapiens) (UniProt P11086). The following applies: purified enzyme, MTase-Glo SAH luminescence; measured here: PNMT inhibition; at 40 µM; stronger effect = lower value. In outline:
as §1

“And” between values parts separate entries of the source, which are not always exact repeats. Identical values can stand only once. This is one part of the list. These are further read-outs of the screen, such as a control signal, another cell line or another target. No call is given for them.
% is scaled to controls: 0 for no effect and ±100 for the full control effect.

Turning to `NS(=O)(=O)c1cc2c(cc1Cl)NCNS2(=O)=O`, the activity change, negative = inhibition was -0.864% in experiment [1]; 3.07% in experiment [2]; 0.59% in experiment [3]; -6.37% in experiment [4]; 4.33% in experiment [5].
For `CCCN1C(=O)c2cc(C(=O)NCc3cccc(C)c3)nn2CC1(C)C(=O)NC1CCCC1` (stereo not drawn) the same measures were -1.03%, 4.73%, 0.871%, -1.15% and 2.11%.
Consider `CC(=O)O[C@@H]1[C@H](O[C@@H]2O[C@@H](CO)[C@H](O)[C@H]2O)[C@@H](O[C@@H]2O[C@@H](C)[C@H](O[C@@H]3OC[C@@H](O)[C@H](O)[C@H]3O)[C@@H](O)[C@H]2O)[C@H](OC(=O)[C@]23CCC(C)(C)C[C@H]2C2=CCC4[C@@]5(C)CC[C@H](O[C@@H]6O[C@H](C(=O)O)[C@@H](O)[C@H](O)[C@H]6O[C@@H]6O[C@H](CO)[C@H](O)[C@H](O)[C@H]6O)[C@@](C)(C=O)C5CC[C@@]4(C)[C@]2(C)C[C@H]3O)O[C@@H]1C` (stereo partly drawn), for which the activity change, negative = inhibition in experiment [1] stood at 5.44%; in experiment [2], 17.3%; in experiment [3], 12.7%; in experiment [4] it was 6.71%; in experiment [5], 12.1%.
For `NC(N)=N/N=C/c1c(Cl)cccc1Cl` the same measures were 0.741%, 5.07%, -31.3%, -8.85% and 0.059%.
Taken in the same sequence, the figures for `CC(C)[C@@H]1C[C@@H]2C[C@@H](Nc3ccccn3)C[C@]2(c2ccccc2)CO1` were -5.98%, -7.54%, -6.15%, -11.5% and -5.53%.
For `CC1CCCC(C)N1C(=O)c1ccc2nc(-c3cccnc3)oc2c1` (stereo not drawn) the same measures were -7.82%, -7.43%, -3.46%, -14.4% and -10.5%.
In the case of `COc1cc2c(c(O)c1OC/C=C(\C)CC/C=C(/C)CCC=C(C)C)CN(C(CCC(=O)O)C(=O)O)C2=O` (stereo not drawn), the activity change, negative = inhibition in experiment [1] is -2.63%; in experiment [2], -6.1%; in experiment [3], 3.12%; in experiment [4] it was -21.7%; in experiment [5], -1.16%.
For `O=C(CC1CCCC1)N1CC[C@@H]2COCCN(Cc3ccccc3)[C@@H]2C1` the same measures were -1.66%, 2.15%, 2.22%, -5.77% and 0.394%.
For `CN(C)CCc1c[nH]c2ccc(C[C@H]3COC(=O)N3)cc12` the same measures were -2.66%, -0.661%, -4.64%, -16.5% and 1.44%.
For `O=C(CCn1ccc2cc(S(=O)(=O)N3CCCCC3)ccc21)NCc1ccccc1Cl` the same measures were 1.1%, 3.72%, -0.913%, -4.3% and -3.91%.
Take `COc1ccccc1-c1nocc1CCC(=O)O`: the activity change, negative = inhibition is -0.945% in experiment [1]; -0.336% in experiment [2]; 1.86% in experiment [3]; -1.76% in experiment [4]; 3.64% in experiment [5].
For `COCCn1cnnc1C(C)NC(=O)c1cn(C2CCC(N)CC2)nn1` (stereo not drawn) the same measures were -3.16%, -4.61%, -1.81%, -11.4% and -4.21%.
Taken in the same sequence, the figures for `CN(C)CCC=C1c2ccccc2C=Cc2ccccc21` were -4.6%, 2.38%, -47.4%, -11.2% and 1.23%.
Taken in the same sequence, the figures for `CNc1cc(C2CC(NC(=O)COc3ccc(Cl)cc3C)C2)nc(N)n1` (stereo not drawn) were -9.6%, -9.67%, -59.2%, -33.2% and -14.2%.
With `COc1ccc(-c2ccc(-c3cn(C(=O)N4CCCCC4c4ccccc4)nn3)cc2)cc1` (stereo not drawn), the activity change, negative = inhibition in experiment [1] was 5.86%; in experiment [2], -25.3%; in experiment [3], 10.9%; in experiment [4], -30%; in experiment [5] it was -2.78%.
Taken in the same sequence, the figures for `C/C=C/C=C/C1=C2C(=O)C3(C)C4C(C(=O)CC(O)/C=C/C)=C(O1)C1(C)C2C2(C)OC1(O)C4(C)OC23O` (stereo not drawn) were -6.38%, -5.8%, 4.23%, -14.9% and -0.647%.
For `CCCn1c(=O)c2ccccc2n2c(=O)n(CC(=O)Nc3cc(C)cc(C)c3)nc12` the same measures were 4.37%, 3.47%, 9.32%, -2.84% and 4.64%.
In the case of `CC(C)(F)C[C@H](N[C@@H](c1ccc(-c2ccc(S(C)(=O)=O)cc2)cc1)C(F)(F)F)C(=O)NC1(C#N)CC1`, the activity change, negative = inhibition in experiment [2] is -8.41% and 1.72%; in experiment [4], -23.3% and -17.1%; in experiment [5] it was -3.22% and -3.19%.
On to `CC1CCCCN1CCCN1C(=O)c2cc3occc3n2CC1(C)C(=O)NC1CCCCCC1` (stereo not drawn), for which the activity change, negative = inhibition in experiment [1] was -6.79%; in experiment [2], -4.03%; in experiment [3], -8.93%; in experiment [4], -1.33%; in experiment [5], -6.22%.
For `Cc1cccc(N2C(=O)c3cc(-c4ccccc4)nn3CC2(C)C(=O)NCc2ccccc2)c1C` (stereo not drawn), the activity change, negative = inhibition in experiment [1] was 2.42%; in experiment [2], 0.718%; in experiment [3], 3%; in experiment [4], -1.86%; in experiment [5], 0.634%.
Taken in the same sequence, the figures for `CN1C(=O)c2cc(C(=O)NCc3ccccc3F)nn2CC1(C)C(=O)NC1CCCCCC1` (stereo not drawn) were 4.07%, 0%, -0.723%, 3.33% and -0.143%.
Taken in the same sequence, the figures for `CC(=O)Nc1c2n(c3ccccc13)CC(C)(C(=O)NC1CCCC1)N(C(C)c1ccccc1)C2=O` (stereo not drawn) were 1.68%, 4.04%, -5.46%, 5.42% and 3.41%.
On to `COc1ccccc1CN(C)C1CCc2ccccc21` (stereo not drawn), for which the activity change, negative = inhibition in experiment [1] was -3.27%; in experiment [2], -7.74%; in experiment [3] it was -33.6%; in experiment [4], -11.2%; in experiment [5], -8.23%.
For `O=C(NC1CCCCC1)c1nn(CCOc2ccccc2)c2c1CNCC2` the same measures were -8.7%, -6.74%, -9.97%, -15.6% and -15.6%.
Taken in the same sequence, the figures for `CC(=O)O[C@@H]1C(=O)C(C)=C(CCC(C)CC(=O)O)[C@@]2(C)CCCC(C)(C)C12` (stereo partly drawn) were -2.62%, -0.876%, 5.28%, -15.3% and -5.43%.
For `CC(C)OCCCn1c(=O)c2ccccc2n2c(CCC(=O)NCCc3ccccc3)nnc12` the same measures were -9.35%, 2.26%, -5.65%, 5.11% and -7.07%.
For the compound `O=C(N[C@H]1CCOC[C@H]1C1CCOCC1)c1cc2ncccn2n1`, the activity change, negative = inhibition in experiment [1] was -1.21%; in experiment [2] it was 0.301%; in experiment [3], 0.386%; in experiment [4], 0.444%; in experiment [5], 2.84%.
In the case of `Cc1cc2c(cc3n2CC(C)(C(=O)NC2CCCCC2)N(Cc2cccnc2)C3=O)o1` (stereo not drawn), the activity change, negative = inhibition in experiment [1] worked out at 4.89%; in experiment [2], 1.11%; in experiment [3], 9.52%; in experiment [4], 12.2%; in experiment [5], 5.7%.
Taken in the same sequence, the figures for `COc1cccc(Cn2ncc3c4sc(S(C)=O)cc4n(C)c3c2=O)c1` (stereo not drawn) were -1.16%, 1.89%, 7.2%, -8.89% and 7.21%.
Taken in the same sequence, the figures for `N#CC(CCCN1CCC(O)(c2ccc(Cl)cc2)CC1)(c1ccccc1)c1ccccc1` were 3.85%, 1.94%, -0.04%, -33.1% and -11.1%.
Taken in the same sequence, the figures for `C[C@@H]1O[C@@H](O[C@H]2[C@H](O[C@H]3CC[C@@]4(C)C(CC[C@]5(C)C4CC=C4C6CC(C)(C)CC[C@]6(C(=O)O[C@@H]6O[C@H](CO[C@@H]7O[C@H](CO)[C@@H](O[C@@H]8O[C@@H](C)[C@H](O)[C@@H](O)[C@H]8O)[C@H](O)[C@H]7O)[C@@H](O)[C@H](O)[C@H]6O)CC[C@]45C)[C@]3(C)CO)OC[C@H](O)[C@@H]2O)[C@H](O)[C@H](O)[C@H]1O` (stereo partly drawn) were 0%, -1.54%, 4.43%, -15.8% and 7.32%.
Turning to `CC1(C(=O)NCc2ccccc2)Cn2c(cc3ccccc32)C(=O)N1CCC1=CCCCC1` (stereo not drawn), the activity change, negative = inhibition is -1.22% in experiment [1]; 2.54% in experiment [2]; -3.1% in experiment [3]; -5.34% in experiment [4]; -8.05% in experiment [5].
Taken in the same sequence, the figures for `CC(C)CCn1c(=O)c2ccc(C(=O)NC3CCCCC3)cc2n2c(=O)n(CC(=O)c3ccccc3)nc12` were 5.28%, 0.868%, 5.24%, 4.84% and 6.42%.
For `CC1(CCC(=O)N2CCCC2C(=O)Nc2ccccc2Oc2cccnc2)CC1` (stereo not drawn) the same measures were -3.68%, -4.28%, -2.51%, -12.2% and 7.03%.
